Assay results taken from the supplement of paper PMC8728848.
The other results are listed elsewhere or left out.

Experiments:
Assay in all cases: glycan array binding signal (z-score within array); higher = stronger binding
Conditions in all cases: glycan notation: IUPAC condensed, linker removed
[1] = biological target: Neu5Ac(a2-3)Gal(b1-4)GlcNAc(b1-2)[Neu5Ac(a2-3)Gal(b1-4)GlcNAc(b1-4)]Man(a1-3)[GlcNAc(b1-4)][Neu5Ac(a2-3)Gal(b1-4)GlcNAc(b1-2)[Neu5Ac(a2-3)Gal(b1-4)GlcNAc(b1-6)]Man(a1-6)]Man(b1-4)GlcNAc(b1-4)GlcNAc
Procedure, shortened: (§1)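 The Consortium for Functional Glycomics database supplied 3228 glycan arrays, of which those lacking an available protein sequence were dropped. The binding signal, a within-array Z-score, was averaged across arrays of the same protein sequence and across linkers. Negative scores can be read as non-binding.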

[2] = biological target: Neu5Ac(a2-3)Gal(b1-4)GlcNAc(b1-2)[Neu5Ac(a2-3)Gal(b1-4)GlcNAc(b1-4)]Man(a1-3)[GlcNAc(b1-4)][Neu5Ac(a2-3)Gal(b1-4)GlcNAc(b1-4)Man(a1-6)]Man(b1-4)GlcNAc(b1-4)GlcNAc
Procedure, shortened: as §1

[3] = biological target: Neu5Ac(a2-3)Gal(b1-4)GlcNAc(b1-2)[Neu5Ac(a2-3)Gal(b1-4)GlcNAc(b1-6)]Man(a1-6)[Neu5Ac(a2-3)Gal(b1-4)GlcNAc(b1-2)Man(a1-3)][GlcNAc(b1-4)]Man(b1-4)GlcNAc(b1-4)GlcNAc
Procedure, shortened: as §1

[4] = biological target: Neu5Ac(a2-3)Gal(b1-4)GlcNAc(b1-3)Gal
Procedure, shortened: as §1

[5] = biological target: Neu5Ac(a2-3)Gal(b1-4)GlcNAc(b1-3)Gal(b1-3)GlcNAc
Procedure, shortened: as §1

[6] = biological target: Neu5Ac(a2-3)Gal(b1-4)GlcNAc(b1-3)Gal(b1-4)GlcNAc
Procedure, shortened: as §1

[7] = biological target: Neu5Ac(a2-3)Gal(b1-4)GlcNAc(b1-3)Gal(b1-4)GlcNAc(b1-2)Man(a1-3)[Neu5Ac(a2-3)Gal(b1-4)GlcNAc(b1-3)Gal(b1-4)GlcNAc(b1-2)Man(a1-6)]Man(b1-4)GlcNAc(b1-4)GlcNAc
Procedure, shortened: as §1

[8] = biological target: Neu5Ac(a2-3)Gal(b1-4)GlcNAc(b1-3)Gal(b1-4)GlcNAc(b1-3)Gal(b1-4)GlcNAc
Procedure, shortened: as §1

[9] = biological target: Neu5Ac(a2-3)Gal(b1-4)GlcNAc(b1-3)Gal(b1-4)GlcNAc(b1-3)Gal(b1-4)GlcNAc(b1-2)Man(a1-3)[Neu5Ac(a2-3)Gal(b1-4)GlcNAc(b1-3)Gal(b1-4)GlcNAc(b1-3)Gal(b1-4)GlcNAc(b1-2)Man(a1-6)]GalNAc
Procedure, shortened: as §1

[10] = biological target: Neu5Ac(a2-3)Gal(b1-4)GlcNAc(b1-3)Gal(b1-4)GlcNAc(b1-3)GalNAc
Procedure, shortened: as §1

[11] = biological target: Neu5Ac(a2-3)Gal(b1-4)GlcNAc(b1-3)Gal(b1-4)GlcNAc(b1-3)[Neu5Ac(a2-3)Gal(b1-4)GlcNAc(b1-3)Gal(b1-4)GlcNAc(b1-6)]GalNAc
Procedure, shortened: as §1

[12] = biological target: Neu5Ac(a2-3)Gal(b1-4)GlcNAc(b1-3)Gal(b1-4)GlcNAc(b1-6)[Gal(b1-3)]GalNAc
Procedure, shortened: as §1

[13] = biological target: Neu5Ac(a2-3)Gal(b1-4)GlcNAc(b1-3)Gal(b1-4)[Fuc(a1-3)]GlcNAc
Procedure, shortened: as §1

[14] = biological target: Neu5Ac(a2-3)Gal(b1-4)GlcNAc(b1-3)GalNAc
Procedure, shortened: as §1

[15] = biological target: Neu5Ac(a2-3)Gal(b1-4)GlcNAc(b1-3)[Neu5Ac(a2-3)Gal(b1-4)GlcNAc(b1-6)]GalNAc
Procedure, shortened: as §1

[16] = biological target: Neu5Ac(a2-3)Gal(b1-4)GlcNAc(b1-6)GalNAc
Procedure, shortened: as §1

[17] = biological target: Neu5Ac(a2-3)Gal(b1-4)GlcNAc(b1-6)[Gal(b1-3)]GalNAc
Procedure, shortened: as §1

[18] = biological target: Neu5Ac(a2-3)Gal(b1-4)GlcNAc(b1-6)[Neu5Ac(a2-3)Gal(b1-3)]GalNAc
Procedure, shortened: as §1

[19] = biological target: Neu5Ac(a2-3)Gal(b1-4)GlcNAc6S
Procedure, shortened: as §1

[20] = biological target: Neu5Ac(a2-3)Gal(b1-4)[Fuc(a1-3)]GlcNAc
Procedure, shortened: as §1

[21] = biological target: Neu5Ac(a2-3)Gal(b1-4)[Fuc(a1-3)]GlcNAc(b1-2)Man
Procedure, shortened: as §1

[22] = biological target: Neu5Ac(a2-3)Gal(b1-4)[Fuc(a1-3)]GlcNAc(b1-3)Gal
Procedure, shortened: as §1

[23] = biological target: Neu5Ac(a2-3)Gal(b1-4)[Fuc(a1-3)]GlcNAc(b1-3)Gal(b1-4)GlcNAc
Procedure, shortened: as §1

[24] = biological target: Neu5Ac(a2-3)Gal(b1-4)[Fuc(a1-3)]GlcNAc(b1-3)Gal(b1-4)[Fuc(a1-3)]GlcNAc(b1-3)Gal(b1-4)[Fuc(a1-3)]GlcNAc
Procedure, shortened: as §1

[25] = biological target: Neu5Ac(a2-3)Gal(b1-4)[Fuc(a1-3)]GlcNAc(b1-3)GalNAc
Procedure, shortened: as §1

[26] = biological target: Neu5Ac(a2-3)Gal(b1-4)[Fuc(a1-3)]GlcNAc(b1-6)[Gal(b1-3)]GalNAc
Procedure, shortened: as §1

[27] = biological target: Neu5Ac(a2-3)Gal(b1-4)[Fuc(a1-3)]GlcNAc(b1-6)[Neu5Ac(a2-3)Gal(b1-3)]GalNAc
Procedure, shortened: as §1

[28] = biological target: Neu5Ac(a2-3)Gal(b1-4)[Fuc(a1-3)]GlcNAc6S
Procedure, shortened: as §1

[29] = biological target: Neu5Ac(a2-3)Gal6S(b1-4)GlcNAc
Procedure, shortened: as §1

[30] = biological target: Neu5Ac(a2-3)Gal6S(b1-4)[Fuc(a1-3)]GlcNAc
Procedure, shortened: as §1

[31] = biological target: Neu5Ac(a2-3)GalNAc
Procedure, shortened: as §1

[32] = biological target: Neu5Ac(a2-3)GalNAc(b1-4)GlcNAc
Procedure, shortened: as §1

[33] = biological target: Neu5Ac(a2-3)[GalNAc(b1-4)]Gal(b1-4)Glc
Procedure, shortened: as §1

[34] = biological target: Neu5Ac(a2-3)[GalNAc(b1-4)]Gal(b1-4)GlcNAc
Procedure, shortened: as §1

[35] = biological target: Neu5Ac(a2-3)[GalNAc(b1-4)]Gal(b1-4)GlcNAc(b1-3)GalNAc
Procedure, shortened: as §1

[36] = biological target: Neu5Ac(a2-3)[Neu5Ac(a2-6)]GalNAc
Procedure, shortened: as §1

[37] = biological target: Neu5Ac(a2-6)Gal
Procedure, shortened: as §1

[38] = biological target: Neu5Ac(a2-6)Gal(b1-3)GlcNAc(b1-3)[Gal(b1-4)GlcNAc(b1-6)]Gal(b1-4)Glc
Procedure, shortened: as §1

[39] = biological target: Neu5Ac(a2-6)Gal(b1-4)Glc
Procedure, shortened: as §1

[40] = biological target: Neu5Ac(a2-6)Gal(b1-4)GlcNAc
Procedure, shortened: as §1

[41] = biological target: Neu5Ac(a2-6)Gal(b1-4)GlcNAc(b1-2)Man
Procedure, shortened: as §1

[42] = biological target: Neu5Ac(a2-6)Gal(b1-4)GlcNAc(b1-2)Man(a1-3)Man(b1-4)GlcNAc(b1-4)GlcNAc
Procedure, shortened: as §1

[43] = biological target: Neu5Ac(a2-6)Gal(b1-4)GlcNAc(b1-2)Man(a1-3)[Gal(b1-4)GlcNAc(b1-2)Man(a1-6)]Man(b1-4)GlcNAc(b1-4)GlcNAc
Procedure, shortened: as §1

[44] = biological target: Neu5Ac(a2-6)Gal(b1-4)GlcNAc(b1-2)Man(a1-3)[GlcNAc(b1-2)Man(a1-6)]Man(b1-4)GlcNAc(b1-4)GlcNAc
Procedure, shortened: as §1

[45] = biological target: Neu5Ac(a2-6)Gal(b1-4)GlcNAc(b1-2)Man(a1-3)[GlcNAc(b1-4)][Neu5Ac(a2-6)Gal(b1-4)GlcNAc(b1-2)Man(a1-6)]Man(b1-4)GlcNAc(b1-4)GlcNAc
Procedure, shortened: as §1

B1: Nc3LysM (protein)
chain: QFTVPPDTTAEPNTIKTCTWWHVAGSGDSCTSIASTYGITSEQFARWDMETTDSPKNPSVATACKLTVGNSYCIENNFGQDDPPTPSISSSTLIGTATTSTTASTTTGNGISTPTPIQEGMETATTTTSSGNGITTPTPTQAGMETVGNCDRFHLVKSGDQCGTIASTYGITLANFYSWNPAVGTSCQSLWLDTYVCVRTIGFVPPKTTTTTTKKPTSTTSAGGVATPTPTQPGMETVSGCKKFHKGRGNVSTVASGDQCGTIATRYGISLANFYSWNPAVGSSCQTLWLDYYVCVGR
[1]
  glycan array binding signal (z-score): -0.3
[2]
  glycan array binding signal (z-score): -0.276
[3]
  glycan array binding signal (z-score): -0.026
[4]
  glycan array binding signal (z-score): -0.167
[5]
  glycan array binding signal (z-score): -0.112
[6]
  glycan array binding signal (z-score): -0.19
[7]
  glycan array binding signal (z-score): 0.059
[8]
  glycan array binding signal (z-score): 0.039
[9]
  glycan array binding signal (z-score): -0.068
[10]
  glycan array binding signal (z-score): 0.172
[11]
  glycan array binding signal (z-score): 0.016
[12]
  glycan array binding signal (z-score): -0.051
[13]
  glycan array binding signal (z-score): -0.097
[14]
  glycan array binding signal (z-score): 0.083
[15]
  glycan array binding signal (z-score): -0.004
[16]
  glycan array binding signal (z-score): -0.054
[17]
  glycan array binding signal (z-score): -0.075
[18]
  glycan array binding signal (z-score): -0.11
[19]
  glycan array binding signal (z-score): -0.167
[20]
  glycan array binding signal (z-score): 0.098
[21]
  glycan array binding signal (z-score): 0.007
[22]
  glycan array binding signal (z-score): -0.271
[23]
  glycan array binding signal (z-score): 0.009
[24]
  glycan array binding signal (z-score): -0.141
[25]
  glycan array binding signal (z-score): -0.069
[26]
  glycan array binding signal (z-score): -0.127
[27]
  glycan array binding signal (z-score): -0.017
[28]
  glycan array binding signal (z-score): -0.008
[29]
  glycan array binding signal (z-score): -0.239
[30]
  glycan array binding signal (z-score): 0.067
[31]
  glycan array binding signal (z-score): -0.188
[32]
  glycan array binding signal (z-score): -0.077
[33]
  glycan array binding signal (z-score): -0.173
[34]
  glycan array binding signal (z-score): -0.172
[35]
  glycan array binding signal (z-score): -0.016
[36]
  glycan array binding signal (z-score): 0.027
[37]
  glycan array binding signal (z-score): -0.204
[38]
  glycan array binding signal (z-score): -0.162
[39]
  glycan array binding signal (z-score): -0.101
[40]
  glycan array binding signal (z-score): -0.121
[41]
  glycan array binding signal (z-score): -0.043
[42]
  glycan array binding signal (z-score): 0.14
[43]
  glycan array binding signal (z-score): -0.063
[44]
  glycan array binding signal (z-score): -0.106
[45]
  glycan array binding signal (z-score): 0.021
